Some of the results follow.
Assays:
HSkMC = human skeletal muscle cells; experiment: cytotoxicity call (relative viability < 0.9); settings: 10 µM
S. aureus RN4220 = experiment: growth inhibition call (relative growth <= 0.2); settings: 50 µM

SMILES	cytotoxicity call (HSkMC)	growth inhibition call (S. aureus RN4220)
CC(C)Sc1n[nH]c(=O)[nH]c1=O	inactive	inactive
C[C@@H]1CCCCO[C@H](CN(C)C(=O)C2CCCCC2)[C@@H](C)CN([C@H](C)CO)C(=O)c2cc(NC(=O)NC3CCCCC3)ccc2O1	inactive	inactive
CN1C(=O)c2cc(NC(=O)C3CCOCC3)ccc2OC[C@@H]2O[C@@H](CC(=O)NCc3ccc4c(c3)OCO4)CC[C@H]21	inactive	inactive
CCNC(=O)C[C@H]1CC[C@@H]2[C@H](COC[C@@H](O)CN2C(=O)Nc2c(C)noc2C)O1	inactive	inactive

— the antibiotic and cytotoxicity screens of Wong et al. (2023)
